# Laboratory results as given in PubChem BioAssay AID1240 (Sanford-Burnham Center for Chemical Genomics, 2008).
# About 800 (1.6%) of roughly 50,000 compounds showed an effect of 50% or more. The list shows a part of the results.
# Molecular target: Bcl-2-like protein 10 (Homo sapiens) (UniProt Q9HD36)
# Assay: TR3 peptide-Bcl-B binding displacers, biochemical primary FP assay, phenotype converters (AID 1240);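 also: 0% = Bcl-B with tracer peptide and DMSO and 100% = tracer peptide lacking Bcl-B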
# Settings: GST-Bcl-B / FITC-TR3 peptide fluorescence polarization; stronger effect = higher value; compound at 3.75 mg/L
# Chain of UniProt Q9HD36 (Q9HD36 whole entry, looked up): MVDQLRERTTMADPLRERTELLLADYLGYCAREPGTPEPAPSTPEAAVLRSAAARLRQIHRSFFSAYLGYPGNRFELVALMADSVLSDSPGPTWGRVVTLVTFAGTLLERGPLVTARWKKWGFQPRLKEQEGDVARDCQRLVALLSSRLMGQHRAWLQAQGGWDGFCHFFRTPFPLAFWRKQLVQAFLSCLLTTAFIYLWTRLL
row,Structure (SMILES),displacement
1,CCOc1ccc2nc(SCCNS(=O)(=O)c3ccccc3)sc2c1,-8.7%
2,CCN(CC)c1ccc(NC(=O)/C=C/c2cc(Br)ccc2OC)cc1,12.9%
3,COc1ccc(C(=O)CSc2nc3ccc([N+](=O)[O-])cc3[nH]2)cc1,13.2%
4,Cc1ccc(NC(=O)c2ccccc2NC(=O)Cc2cccs2)cc1C,3.4%
5,O=C(CCCN1CCN2CCCC2C1)c1ccc(F)cc1 (stereo unspecified),-8%
6,CC1(C)Cc2c(sc3ncn4nc(-c5ccncc5)nc4c23)C(C)(C)N1,-5.9%
7,COc1cc2ccccc2cc1C(=O)Nc1ccc(Br)cn1,-5.1%
8,NC(=O)c1cccc2c1-c1ccccc1/C2=N/NC(N)=S,8.5%
9,COc1ccccc1N1CCN(/N=C/c2ccc(C(F)(F)F)cc2)CC1,-3.5%
10,COc1ccccc1NC(=O)COc1ccc(C)cc1C,6.4%
11,O=C(O)c1ccc(-c2cccc(Br)c2)o1,-2.9%
12,Nc1nonc1-n1nnc(CN2CCCCCC2)c1CN1CCCCCC1,5%
13,CC(Oc1ccc(Cl)cc1Cl)C(=O)Nc1ccc2c(c1)OCO2 (stereo unspecified),-8.4%
14,COC(=O)c1c(N)sc(C)c1-c1ccc(Cl)cc1Cl,-5.8%
15,O=C1NC(=Nc2ccccc2)S/C1=C/c1ccsc1,1.2%
16,COc1cc(C(=O)NN2C(=O)/C(=C/c3ccc(OC)c(OC)c3)SC2=S)ccc1O,-28.1%
17,CCOC(=O)c1sc(NC(=O)C2c3ccccc3Oc3ccccc32)c(C(N)=O)c1C,4.7%
18,COC(=O)C(C)N(C(=O)c1cccc(Cl)c1)c1c(C)cccc1C (stereo unspecified),12.9%
19,COc1cc(OC)c(-c2nc(-c3ccccc3)c(-c3ccc([N+](=O)[O-])cc3)[nH]2)cc1OC,1.8%
20,COc1cccc(/C=C2\SC(=O)N(CCC(=O)Nc3ccc(Br)cc3)C2=O)c1,1.9%
21,c1n[nH]c(NCc2ccc3c(c2)OCO3)n1,10%
22,COc1ccc(N(Cc2ccc(C(=O)NC3CCCCC3)cc2)S(=O)(=O)c2ccccc2)cc1,2.9%
23,CCOC(=O)C1=C(C)NC(C)=C(C(=O)OC)C1c1ccc(Cl)cc1 (stereo unspecified),3.3%

row,Structure (SMILES),displacement
1,COc1ccccc1CC(=O)Nc1cccc(Br)c1,9.7%
2,CCCC(=O)C1C(=O)CC(C)(C)C1C(=O)OC (stereo unspecified),-9.6%
3,COC(=O)c1ccn(C(=O)c2ccc(Cl)cc2)n1,-1%
4,O/C(=C/c1nc2ccccc2nc1/C=C(/O)c1ccccc1)c1ccccc1,13.6%
5,CC(Cc1ccccc1)NC(=O)c1cc2ccccc2o1 (stereo unspecified),-14%
6,CCC1C(c2ccc(Cl)cc2)NC(c2ccc(Cl)cc2)C(CC)C1O (stereo unspecified),-9%
7,CCCOc1cccc(-c2nc3cc(OC)c(OC)cc3c(=O)o2)c1,0.4%
8,O=C(/C=C/c1ccc(Cl)cc1)Nc1ccc(Cc2ccncc2)cc1,-5.8%
9,COc1cc(/C=c2\sc3nc4ccccc4n3c2=O)cc(I)c1OCC(=O)O,-4.2%
10,COc1cc(-c2noc(/C=C/c3ccccc3)n2)cc(OC)c1OC,17.2%
11,Cc1cc([N+](=O)[O-])ccc1N1C(=O)c2ccccc2C1=O,5.9%
12,N#C/C(=C\c1ccc(-c2ccccc2[N+](=O)[O-])o1)C(=O)Nc1cccc(Br)c1,-6.3%
13,O=Cc1cccc(OCc2ccc(Cl)cc2Cl)c1,3.8%
14,C=CCNc1nc(-c2ccccc2)cs1,-26.4%
15,Cn1c(-c2cccc(Cl)c2)n[nH]c1=S,13.1%
16,Cc1ccc2c(Cl)c(C(=O)Nc3nc(-c4ccccc4)cs3)sc2c1,-16.7%
17,O=c1/c(=C\c2ccc(OCc3ccc([N+](=O)[O-])cc3)cc2)sc2nc3ccccc3n12,4.5%
18,CC(C)C(C(=O)Nc1ccc(F)cc1)N1C(=O)c2ccccc2C1=O (stereo unspecified),-5.3%
19,Cc1ccc(CSc2nnc(-c3cccc(F)c3)n2-c2ccccc2)cc1,2.8%
20,O=C1c2ccccc2NC(c2ccc3c(c2)OCO3)N1Cc1ccccc1 (stereo unspecified),10.9%
21,Cc1cc(C)nc(NS(=O)(=O)c2ccc(NC(=O)c3cc4cc([N+](=O)[O-])ccc4s3)cc2)n1,13.7%
22,O=C1ON=C(c2ccccc2)/C1=C\c1ccccc1OCc1ccccc1,-2.2%
23,CCOC(=O)C(CCCCOc1ccc(Cl)cc1)C(=O)OCC,8.5%

row,Structure (SMILES),displacement
1,COc1ccccc1N1C(=O)NC(=O)/C(=C\c2cc3ccccc3n2C)C1=O,165%
2,Cc1cccc(NS(=O)(=O)c2ccc([N+](=O)[O-])cc2)c1C,-13.5%
3,COc1ccc(C(=O)NC2CCCCC2)cc1S(=O)(=O)N1CCOCC1,-5.1%
4,O=c1[nH]c(=O)n(-c2ccc(Br)cc2)c(O)c1C=C1C=CC=N1,123%
5,Cc1cccc(C(=O)Nc2sc3c(c2C(=O)N2CCCCCC2)CCCCC3)c1,-10%
6,COc1ccc(-c2cc(C(F)(F)F)n3ncc(C(=O)NC(C)C)c3n2)cc1,0.3%
7,CC(=O)CC(=O)Nc1cc(Cl)ccc1C,6.8%
8,COc1ccccc1C(=O)Nc1ccc(Br)cc1F,-2.7%
9,COc1ccc(S(=O)(=O)N2CCN(Cc3ccc(C)cc3)CC2)cc1,-11.9%
10,COc1ccc(C2CC(C(F)(F)F)n3nc(C(=O)O)c(Cl)c3N2)cc1OC (stereo unspecified),2.8%
11,Cc1ccc(S(=O)(=O)N2CCN(C(C)C)CC2)cc1,10%
12,CSc1nc2c(c(=O)[nH]1)C(c1ccc(Br)cc1)c1c(nc(SC)[nH]c1=O)O2,10.4%
13,CCC1(C)Cc2c(sc3[nH]c(=S)n(Cc4ccccc4)c(=O)c23)CO1 (stereo unspecified),-10.3%
14,CCOC(=O)c1c(-c2cc(C)ccc2C)csc1N,-0.4%
15,Cc1[nH]nc(Nc2cccc(C(=O)O)c2)c1[N+](=O)[O-],12.7%
16,Cc1ccc(N(CC(=O)NCCSc2ccc(Cl)cc2)S(=O)(=O)c2ccc(F)cc2)cc1,-15.1%
17,Cc1ccc(S(=O)(=O)NC(=O)Nc2ccc(C)c(Cl)c2)cc1,11.9%
18,CCCOC(=O)c1cccc(NC(=O)COc2ccc(Br)cc2)c1,14.6%
19,CC(C)CC(C(=O)Nc1sc2c(c1C(N)=O)CCC(C)C2)N1C(=O)c2ccccc2C1=O (stereo unspecified),6.5%
20,CC(=O)OC(OC(C)=O)c1ccc([N+](=O)[O-])s1,8.1%
21,C=CCc1c(C)nc(SC)nc1Nc1ccc(C(=O)O)cc1,-10%
22,Cc1ccc(/C(N)=N/OC(=O)COc2ccc(Br)cc2)cc1,0.7%
23,Cc1onc(-c2c(F)cccc2Cl)c1C(=O)Nc1ccc(Br)cc1,-15.1%

row,Structure (SMILES),displacement
1,O=S1(=O)CCC(NC(=S)SCCOc2ccccc2OCCO)C1 (stereo unspecified),6.3%
2,O=[N+]([O-])c1ccccc1-c1ccc(/C=C/c2ccc3ccccc3n2)o1,97.9%
3,CCCC(CCC)C(=O)Nc1ccc2c(c1)N(C(=O)CN1CCOCC1)c1ccccc1CC2,-13.1%
4,COc1ccccc1N1CC=C(c2cccc([N+](=O)[O-])c2)NC1=O,9.6%
5,CC(C)(C)c1ccc(C(=O)Nc2cccc3nsnc23)cc1,14.5%
6,Oc1cccc(/C=N/Nc2nncc(-c3ccccc3)n2)c1,6.6%
7,COc1ccc(C2/C(=C(/O)c3ccccc3)C(=O)C(=O)N2Cc2ccccc2)cc1OC (stereo unspecified),-1%
8,COc1cc(/C=C2/SC(=S)N(C)C2=O)cc([N+](=O)[O-])c1O,6.5%
9,O=C(Nc1ccc(N2CCOCC2)cc1)c1ccc(Cl)cc1,6.6%
10,Cc1ccnc(NS(=O)(=O)c2cc(C(C)(C)C)cc(C(C)(C)C)c2)c1,-13%
11,N#CC1=C(N)Oc2cc(O)c(C=Nc3ccccc3I)cc2C1c1ccccc1 (stereo unspecified),-1.5%
12,O=C(O)c1ccc(Oc2ccc(NC(=O)C3CCCCC3)cc2)cc1C(=O)O,4.7%
13,CCC(=O)Nc1cc(OC)ccc1OC,14.2%
14,COc1cccc2c1NC(c1ccccc1Br)C1CC=CC21 (stereo unspecified),-4.2%
15,CCOc1ccc(S(=O)(=O)N/N=C/c2c(C)[nH]c(=O)[nH]c2=O)cc1,-4.5%
16,O=C(O)C(=O)/C(N=Nc1ccc(Cl)cc1)=C(\O)c1ccc(Cl)cc1,6.8%
17,COc1ccc(/C=N/Nc2cc(-n3nc(C)cc3C)nc(C)n2)cc1,-10.7%
18,CCOC(=O)C(=CNc1ccc(C(=O)OC)cc1)C(=O)OCC,-2.5%
19,O=C(Nc1ncc(Cc2cccc(C(F)(F)F)c2)s1)c1ccccc1Br,-6.1%
20,CC1=C(C(=O)OC(C)C)C(c2ccsc2)NC(=O)N1C (stereo unspecified),-11.5%
21,O=C(NCCCN1CCOCC1)c1ccc([N+](=O)[O-])cc1,-1.2%
22,Cc1cc(Cl)ccc1NC(=O)CCc1ccccc1,-7.3%
23,CC1=C(C(=O)Nc2ccc(Cl)cc2)C(c2ccccc2F)NC(=O)N1 (stereo unspecified),-13.9%

row,Structure (SMILES),displacement
1,Cc1c([N+](=O)[O-])cc2[nH]c(=O)c(=O)[nH]c2c1[N+](=O)[O-],0.4%
2,N/C(=N\OC(=O)c1ccc(I)cc1)c1ccncc1,4.3%
3,Cn1c(CNC2CCCCC2)nc2ccccc21,-6.3%
4,Cc1cc(C)nc(SCc2ccccc2C#N)n1,-3%
5,O=c1cccc(-c2cccc([N+](=O)[O-])c2)o1,20.9%
6,CCOc1ccc(NC(=O)CC2S/C(=N\N=C3/CCCc4ccccc43)NC2=O)cc1 (stereo unspecified),11.6%
7,Cc1cc(Cl)ccc1N(CC(=O)NCc1ccco1)S(=O)(=O)c1ccccc1,6.8%
8,O=C(/C=C/c1ccccc1)NC(=S)Nc1ccc([N+](=O)[O-])cc1,14.5%
9,O=C1C(=O)N(Cc2ccccc2)C(c2ccccc2F)/C1=C(/O)c1ccccc1 (stereo unspecified),14.4%
10,COc1ccc(C(NC(C)=O)c2c(OC(C)=O)ccc3ccccc23)cc1 (stereo unspecified),-12%
11,O=C(Nc1ccc(O)c(-c2nc3cc(Cl)ccc3o2)c1)c1cccnc1,-17.8%
12,Cc1ccc(CN2CCN(N=Cc3ccc(C)s3)CC2)c(C)c1,-15.2%
13,O=C(COc1ccccc1)N1CCN(C(=O)c2cccc(F)c2)CC1,10.9%
14,CCc1ccc(NC(=O)c2ccc(Cl)cc2)cc1,11.9%
15,Cc1ccc(OCC(=O)N/N=C\c2ccccc2C)cc1,6.3%
16,CCCN1C(=O)/C(=C\c2nc3ccccc3c(=O)n2C)c2cc(Br)ccc21,1.7%
17,O=C(Cc1ccc(F)cc1)Nc1ccc(Cl)cc1Cl,13.2%
18,CCOC(=O)c1ccc(NC(=O)CN(c2ccc(C)cc2)S(=O)(=O)c2ccc(SC)cc2)cc1,-7.8%
19,C=CCNC(=O)c1cc(OC)c(OC)c(OC)c1,-8.1%
